# Data reported in the BET-seq Pho4 binding data (Le et al. 2018).
# The other results are listed elsewhere or left out. These are noisy estimates, calculated here from bound and input reads.
# Target: T1, Pho4 (S. cerevisiae) (UniProt P07270)
# T1 sequence: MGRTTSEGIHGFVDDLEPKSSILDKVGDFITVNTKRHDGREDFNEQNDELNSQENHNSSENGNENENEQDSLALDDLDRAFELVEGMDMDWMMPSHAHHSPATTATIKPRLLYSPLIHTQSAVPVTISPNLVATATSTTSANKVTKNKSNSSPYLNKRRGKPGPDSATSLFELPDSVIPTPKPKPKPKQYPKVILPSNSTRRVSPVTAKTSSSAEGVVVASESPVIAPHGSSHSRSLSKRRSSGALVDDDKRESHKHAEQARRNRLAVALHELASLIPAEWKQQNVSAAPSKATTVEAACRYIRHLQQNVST
# Assay: relative binding free energy (BET-seq); higher = weaker binding
# Conditions: reference: library average
row,Sequence,relative binding free energy [kcal/mol]
1,AGCTGCACGTGGTTGG,-0.13
2,ATGGCCACGTGGGAGG,-0.16
3,TGCTGCACGTGAGTGT,0.22
4,GTGGGCACGTGGCTGA,-0.12
5,TTACACACGTGTTTGT,0.02
6,GAGTGCACGTGTTAAT,-0.01
7,CGGTGCACGTGTGATT,0.08
8,TTAAGCACGTGTCTTG,-0.15
9,GCTGGCACGTGCTGGG,-0.11
10,AGCGTCACGTGTGGGG,0.09
11,AGTCTCACGTGTGTCG,0.25
12,TGTTGCACGTGGCGTT,-0.08
13,AAGTTCACGTGGCGTG,0.27
14,AGGTGCACGTGTCGGT,-0.06
15,TAAAGCACGTGCTGGG,-0.08
16,TTGCGCACGTGTTAGA,-0.07
17,TGGGACACGTGTGTAA,0.13
18,CGGGACACGTGGGACT,0.07
19,AGGTGCACGTGGACAT,-0.15
20,TTGGGCACGTGTTTTA,0.03
21,GGCTTCACGTGGGTGG,0.19
22,ATTGTCACGTGATATG,0.19
23,TTTCGCACGTGCTTTT,-0.14
24,GGGCACACGTGGGAAT,0.12
25,TGTGGCACGTGGACTG,-0.29

row,Sequence,relative binding free energy [kcal/mol]
1,TAGGGCACGTGAAATG,0.11
2,TGGTGCACGTGGATAG,0.05
3,GTGAGCACGTGAATAG,0.21
4,TCTAGCACGTGAGGGA,0.23
5,TTCTGCACGTGTTGCG,-0.03
6,TGTTTCACGTGATGGC,0.47
7,TGTGGCACGTGTGGCC,-0.08
8,GTGATCACGTGGTCGC,0.17
9,AAGATCACGTGTCTTG,0.26
10,TTTTGCACGTGTGCCG,0.14
11,GTACACACGTGGTGTA,0.05
12,GGTGGCACGTGCAGTT,-0.12
13,TTGTTCACGTGTGGGC,0.36
14,TGTTTCACGTGCGCGT,0.15
15,GATGTCACGTGGTTAT,0.05
16,TGAGACACGTGAGTTA,0.28
17,GGAGTCACGTGATCTG,0.27
18,AGTAGCACGTGTCATG,0.05
19,AGTGGCACGTGCTGCT,-0.21
20,AATAGCACGTGGTGGA,-0.23
21,TGGGACACGTGAAAGA,0.54
22,ACGATCACGTGGGTAT,0.1
23,ATGTTCACGTGGTTTT,0.29
24,ATTGTCACGTGTGAAG,0.14
25,TGGGACACGTGGTTAA,-0.04

row,Sequence,relative binding free energy [kcal/mol]
1,TGATTCACGTGACGAG,0.51
2,GGGCCCACGTGGGTTG,-0.24
3,TATGACACGTGCTGGG,-0.05
4,TATCGCACGTGTAGGT,-0.05
5,GTTATCACGTGGTTTA,0.15
6,GGTTACACGTGGGCTA,0.12
7,GTGTTCACGTGTTGAC,0.29
8,AGAATCACGTGGGGCA,0.02
9,GTTGTCACGTGGACAG,0.08
10,CTAAGCACGTGTAGTG,-0.09
11,TATGGCACGTGTTGTA,-0.16
12,TGTAGCACGTGGTCTG,-0.24
13,GGTAACACGTGCGGAT,0.16
14,GCGTTCACGTGGTGAG,0.26
15,AAGGTCACGTGCATTG,0.13
16,TTTATCACGTGAGTTG,0.41
17,GAATTCACGTGAGTAA,0.73
18,TATGGCACGTGAGTCA,0.12
19,ATTTACACGTGCAGGG,0.13
20,AGTAGCACGTGTGTGT,-0.08
21,AGGGGCACGTGGGCAG,-0.19
22,TGGGACACGTGGAGTC,0.07
23,GAGATCACGTGAGTTT,0.42
24,TGGAGCACGTGGGGCA,-0.27
25,GCTTGCACGTGAGGTA,0.16

row,Sequence,relative binding free energy [kcal/mol]
1,TACTTCACGTGTTCGT,0.3
2,GGTATCACGTGATATT,0.13
3,AGTGACACGTGTTGGT,0.04
4,TTCTGCACGTGCGGTT,-0.04
5,TTGGACACGTGTTTCG,-0.15
6,TTTAACACGTGGGAGG,-0.06
7,TAGTGCACGTGTTACT,0.01
8,TGTTACACGTGTGGAC,0.17
9,TCAGACACGTGGGCGG,-0.13
10,TAGGGCACGTGAGGCG,0.07
11,TGAATCACGTGGGGTG,0.07
12,CTGTGCACGTGGTTCT,-0.09
13,GTGGTCACGTGGAGTC,0.1
14,CGTAACACGTGATGGT,0.03
15,CGAGTCACGTGGGCGG,-0.17
16,TGGTTCACGTGGTATC,0.23
17,TATAGCACGTGTTTGT,-0.19
18,TTAGGCACGTGGGAGG,-0.14
19,GATTACACGTGAGTAG,0.47
20,TTTGCCACGTGGGAAT,-0.19
21,TTTAGCACGTGGGGTG,-0.26
22,TATTGCACGTGCCGGG,-0.13
23,TACTGCACGTGGGTAT,-0.1
24,ACAAACACGTGGGGGG,-0.05
25,GTGGGCACGTGTACAA,0

row,Sequence,relative binding free energy [kcal/mol]
1,TGCGGCACGTGTTTAG,-0.07
2,CGCATCACGTGTGTGT,0.22
3,TAGGTCACGTGCGTTC,0.11
4,TCGGACACGTGGGTAG,-0.17
5,CTTGACACGTGAGGTA,0.36
6,CGATGCACGTGGGTTA,-0.12
7,TTAGGCACGTGGATTT,-0.04
8,GTTATCACGTGTAATT,0.06
9,GTCGTCACGTGGGCTG,-0.06
10,CAGTGCACGTGTGATG,0.07
11,GGCAGCACGTGGAGGT,-0.17
12,GGTTACACGTGGAGTA,0.17
13,ATTACCACGTGTTGTG,-0.19
14,ATGTCCACGTGTGTGA,0.01
15,GTTCTCACGTGTGAAT,0.33
16,AATGTCACGTGTGTAG,0.13
17,TATAACACGTGTTATG,0.02
18,GTAAGCACGTGCGGGT,-0.17
19,TATGTCACGTGAGTCT,0.24
20,TTTGGCACGTGGTTAT,-0.18
21,TGTACCACGTGGGATT,-0.12
22,CGTGTCACGTGCGGTT,0.03
23,GGTTGCACGTGGGTCC,-0.08
24,GTCGGCACGTGGTGTT,-0.13
25,TTATTCACGTGATTCA,0.26

row,Sequence,relative binding free energy [kcal/mol]
1,TTTGGCACGTGATATA,-0.06
2,AGGTGCACGTGGGCCA,-0.23
3,AGGTACACGTGGGAGA,0.06
4,GACTTCACGTGCGTGG,0.24
5,GTTCACACGTGTGATT,0.22
6,GTGGGCACGTGAGGAT,0.2
7,ATGAACACGTGCGGGT,-0.05
8,TATGCCACGTGTTGTA,0
9,TTGGGCACGTGCCTTG,-0.1
10,AGCTGCACGTGGGGAA,-0.1
11,TTGTGCACGTGTCGAA,0.09
12,GTTGACACGTGCGGCT,-0.05
13,TTGAACACGTGGGGTA,0.03
14,CCTGTCACGTGGTAGT,0.08
15,TTTTTCACGTGTGGCT,0.37
16,TTGGGCACGTGTCTTT,-0.06
17,GCAACCACGTGGGGGT,-0.11
18,AATTACACGTGATTGT,0.25
19,TTTTGCACGTGTTGAC,-0.02
20,GGATGCACGTGTTTAT,-0.03
21,GTGACCACGTGGCGGT,-0.08
